{"source": "PubChem BioAssay AID504832", "about": "(National Center for Advancing Translational Sciences (NCATS), 2011)", "note": "Screen size: about 310,000 compounds; about 18,000 (5.8%) were called active. This list was built around the results that the source calls inconclusive (neither active nor inactive); the mix of calls is not that of the screen. Calls come from the whole dose curve; as a rule, active = well fitted inhibition curve with a large enough effect; inconclusive = small, poorly fitted or top-dose-only effect, or another doubt; inactive = no such curve, though single readings can be large or run the other way. No potency is given beside an inconclusive call; the fits are too rough. Potency is the fitted concentration of half-maximal effect; tags give direction and shape of the fitted curve."}
{"assay": "Primary qHTS for delayed death inhibitors of the malarial parasite plastid, 48 hour incubation", "details": "P. falciparum luciferase growth in erythrocytes; series mostly up to 28.7 µM", "method_in_brief": "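Parasite viability was followed by luminescence of a genomically integrated firefly luciferase. Cultures held 0.1% parasitemia at 2% hematocrit (final), incubated under 5% CO2 at 37 C.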"}
{"smiles": "O=S(=O)(Nc1cc(C(F)(F)F)ccc1N1CCOCC1)c1ccc2ccccc2c1", "Potency": "inconclusive [inhibitor, single point]"}
{"smiles": "COc1ccc(CCC(=O)Nc2ccc3c(c2)OCCO3)cc1", "Potency": "inactive"}
{"smiles": "COc1ccc(/C(N)=N/OC(=O)C2CCCCC2)cc1OC", "Potency": "inactive"}
{"smiles": "O=C(COC(=O)c1nc(Cl)ccc1Cl)NNC(=O)c1cccs1", "Potency": "inactive"}
{"smiles": "O=C(Nc1ccccc1)Nc1n[nH]c2nnc(-c3ccccc3)c(-c3ccccc3)c12", "Potency": "inconclusive [inhibitor, single point]"}
{"smiles": "CCN1C(=O)[C@H]2[C@@H](c3ccc(-c4ccc(OC)cc4)c(OC)c3)N3CCCC[C@@]3(C(=O)OC)[C@H]2C1=O", "Potency": "active: 11.7 µM"}
{"smiles": "Cn1c2ccsc2c2ncn(Cc3ccc(F)cc3)c(=O)c21", "Potency": "inconclusive [inhibitor, single point]"}
{"smiles": "C#CCNC(=O)C1=C[C@H](c2ccccc2)C[C@H](OCCCCO)O1", "Potency": "inconclusive [inhibitor, partial curve, poor fit]"}
{"smiles": "CCN(CC)S(=O)(=O)c1cc(NC(=O)CSc2nccn2C)ccc1C", "Potency": "inactive"}
{"smiles": "COc1ccc(NC(=O)CN2C(=O)NC3(CCCCC3C)C2=O)cc1OC", "note": "(stereo not given)", "Potency": "inconclusive [inhibitor, single point]"}
{"smiles": "CCC(=NCc1ccco1)c1c(O)n(C2CCCCC2)c(=O)[nH]c1=O", "Potency": "inconclusive [inhibitor, single point]"}
{"smiles": "CN(C)c1ccc(/C=C(\\C#N)c2ccccn2)cc1", "Potency": "inactive"}
{"smiles": "O=C(NC1CCCCC1)C(c1ccc(Cl)cc1)N(C(=O)c1ccccn1)c1cccnc1", "note": "(stereo not given)", "Potency": "inactive"}
{"smiles": "COc1cc(C2C(C#N)=C(N)N(N(C)C)C3=C2C(=O)CC(C)(C)C3)cc(OC)c1OC", "note": "(stereo not given)", "Potency": "inactive"}
{"smiles": "COc1ccc(N2CCN(C(=O)COc3ccc4c(C)cc(=O)oc4c3)CC2)cc1", "Potency": "inconclusive [inhibitor, single point]"}
{"smiles": "Cc1cccc(/C(N)=N/OC(=O)c2ccoc2C)c1", "Potency": "inconclusive [inhibitor, single point]"}
{"smiles": "Cc1ccc(S(=O)(=O)N2CCOCC2)cc1C(=O)Nc1ccc(-c2cn3ccsc3n2)cc1", "Potency": "active: 9.28 µM"}
{"smiles": "CCn1cc(C(=O)O)c(=O)c2cc(F)c(N3CCN(S(=O)(=O)c4ccc(NC(C)=O)cc4)CC3)cc21", "Potency": "active: 6.57 µM"}
{"smiles": "COc1ccc(NC(=O)N(Cc2cc3ccc(OC)cc3[nH]c2=O)CC2CCCO2)cc1", "note": "(stereo not given)", "Potency": "inconclusive [inhibitor, single point]"}
{"smiles": "Cc1ccc(-c2cn(-c3ccc(OC(F)F)cc3)c3[n+]2CCCCC3)cc1", "Potency": "active: 1.31 µM"}
{"smiles": "COc1ccc(S(=O)(=O)N2CCCCCC2)cc1C(=O)N(C)CC(=O)Nc1ccccc1C(F)(F)F", "Potency": "inconclusive [inhibitor, partial curve]"}
{"smiles": "CN(C)c1cccc2c1c(NC(=O)Nc1ccccc1)nn2C", "Potency": "inconclusive [inhibitor, partial curve, poor fit]"}
{"smiles": "O=C(NCN1CCN(c2ccccc2F)CC1)c1cccnc1", "Potency": "inconclusive [inhibitor, full curve, poor fit]"}
{"smiles": "Oc1cccc2ccc(/C=C/c3ccc(Br)s3)nc12", "Potency": "inconclusive [inhibitor, single point]"}
{"smiles": "CC1CCCC(C)N1C(=O)COC(=O)CNC(=O)c1ccccc1F", "note": "(stereo not given)", "Potency": "inactive"}
{"smiles": "C=CCN1CC(=O)N2C(c3ccccc3)c3[nH]c4ccccc4c3C[C@H]2C1=O", "note": "(stereo not given in full)", "Potency": "inconclusive [inhibitor, partial curve]"}
{"smiles": "Cc1nc(CN(C)C(=O)C2CCC(=O)N(CCc3cccc(F)c3)C2)cs1", "note": "(stereo not given)", "Potency": "inactive"}
{"smiles": "COc1ccc(S(=O)(=O)N2CCCc3ccccc32)cc1OC", "Potency": "active: 11.7 µM"}
{"smiles": "O=[N+]([O-])c1ccc(OCC2CC(c3ccccc3)=NO2)cc1", "note": "(stereo not given)", "Potency": "inactive"}
{"smiles": "CCN(CC)c1ccc(/C=C2\\C(=N)N3N=C(CC(=O)N4CCOCC4)SC3=NC2=O)cc1", "Potency": "inactive"}
{"smiles": "COc1cc(/C=C2\\SC(=S)N(CCC(=O)Nc3ccccc3O)C2=O)cc(OC)c1OC", "Potency": "inconclusive [inhibitor, full curve, poor fit]"}
{"smiles": "COc1cccc(N2CCN(C(=O)CCNS(=O)(=O)c3ccc4c(c3)c(=O)n(C)c(=O)n4C)CC2)c1", "Potency": "inconclusive [inhibitor, full curve, poor fit]"}
{"smiles": "COc1cc(/C=C/C(=O)OCC(=O)NC(=O)NC2CCCC2)ccc1OCC#N", "Potency": "inconclusive [inhibitor, single point]"}
{"smiles": "CC1CC1C(=O)N(C)CC(=O)Nc1cccc(F)c1", "note": "(stereo not given)", "Potency": "inconclusive [inhibitor, partial curve, poor fit]"}
{"smiles": "Cc1ccn2c(C(=O)CSc3ccc(Cl)cc3Cl)c(C)nc2c1", "Potency": "inconclusive [inhibitor, single point]"}
{"smiles": "O=C(CSc1nc(-c2cccs2)nc2ccccc12)NC1CCS(=O)(=O)C1", "note": "(stereo not given)", "Potency": "inconclusive [inhibitor, partial curve, poor fit]"}
{"smiles": "CCCCC(=O)NC(c1ccccc1Cl)c1ccc2cccnc2c1O", "note": "(stereo not given)", "Potency": "active: 2.33 µM"}
{"smiles": "C=CCOc1ccc(/C(O)=C2\\C(=O)C(=O)N(CCCOC)C2c2ccncc2)cc1", "note": "(stereo not given)", "Potency": "inactive"}
{"smiles": "Cn1c(=O)n(CCc2ccccc2)c(=O)c2c1nc1n2CCCN1CCc1ccccc1", "Potency": "active: 9.28 µM"}
{"smiles": "CCOC(=O)c1ccc(NC(=O)NCc2ccccc2OC)cc1", "Potency": "inconclusive [inhibitor, partial curve]"}
{"smiles": "CCN1CCc2c(sc(NC(=O)c3ccc(S(=O)(=O)N(C)CC4CCCO4)cc3)c2C(N)=O)C1", "note": "(stereo not given)", "Potency": "inconclusive [inhibitor, partial curve, poor fit]"}
{"smiles": "COc1ccc(-c2c(C#N)c(N)nc3c2c(=O)n(C)c(=O)n3C)cc1", "Potency": "inactive"}
{"smiles": "CC(C)OC(=O)CN1C(=O)S/C(=C/c2ccc(N3CCCCC3)o2)C1=O", "Potency": "inconclusive [inhibitor, single point]"}
{"smiles": "CCOc1ccc2nc(NC(=O)C3CSC4(C)CCC(=O)N34)sc2c1", "note": "(stereo not given)", "Potency": "inactive"}
{"smiles": "Cc1c(NC(=O)c2ccccc2)cccc1[N+](=O)[O-]", "Potency": "inactive"}
{"smiles": "CC(C)(C)OC(=O)N1CC=C2C(C#N)=C(N)C(C#N)(C#N)C(c3cccs3)C2C1", "note": "(stereo not given)", "Potency": "inconclusive [inhibitor, single point]"}
{"smiles": "Cc1cn(-c2cc(NC(=O)c3ccc(C)c(NC(=O)c4cccc(-c5cn[nH]c(=O)c5)c4)c3)cc(C(F)(F)F)c2)cn1", "Potency": "inconclusive [inhibitor, single point]"}
{"smiles": "CCc1c(O)nc(N2CCN(Cc3ccccc3)CC2)[nH]c1=O", "Potency": "inactive"}
{"smiles": "Cc1onc(-c2ccccc2)c1C(=O)OCC(=O)NCc1ccc(F)cc1", "Potency": "inactive"}
{"smiles": "COc1ccc(OC)c(NC(=O)c2nnn(Cc3ccc(Br)cc3F)c2N)c1", "Potency": "inconclusive [inhibitor, partial curve, poor fit]"}
{"smiles": "CN1CCc2c(OCC(=O)N3N=C(c4cccs4)CC3c3ccc(F)cc3)cccc2C1=O", "note": "(stereo not given)", "Potency": "inconclusive [inhibitor, single point]"}
{"smiles": "Clc1cccc(-c2noc3ncnc(Nc4ccc5c(c4)OCO5)c23)c1", "Potency": "inconclusive [inhibitor, partial curve, poor fit]"}
{"smiles": "COc1ccc(/C=C/C(=O)c2ccc(NS(=O)(=O)c3ccc(C)cc3)cc2)cc1O", "Potency": "active: 14.7 µM"}
{"smiles": "CCNS(=O)(=O)c1ccc(NC(=S)N2CCc3ccccc32)cc1", "Potency": "inactive"}
{"smiles": "CCCCC1=CC2=CC(=O)C(C)(OC(=O)CC)C(=O)C2=CN1CCCOC(C)C", "note": "(stereo not given)", "Potency": "inconclusive [inhibitor, single point]"}
{"smiles": "O=C(c1ccc(Cn2c(=O)[nH]c3ccccc3c2=O)cc1)N1CCN(c2ccccc2)CC1", "Potency": "inconclusive [inhibitor, single point]"}
{"smiles": "Cc1ccc(C)c(N/N=C2\\CCCNC2=O)c1", "Potency": "inactive"}
{"smiles": "COCCn1c(SCC#N)nnc1-c1ccc([N+](=O)[O-])cc1", "Potency": "inactive"}
{"smiles": "COc1ccc(CCNC(=O)C2CCN(C(=O)c3ccc(Br)cc3)CC2)cc1OC", "Potency": "inactive"}
{"smiles": "CNCCCOc1ccc2c(c1)CCC2", "Potency": "inconclusive [inhibitor, single point]"}
{"smiles": "Cc1ccc(C(=O)N/N=C/C=C/c2ccccc2)cc1", "Potency": "inactive"}
{"smiles": "COc1ccc(-c2[nH]ncc2-c2cnn(-c3ccccc3)c2)c(O)c1", "Potency": "inconclusive [inhibitor, full curve, poor fit]"}
{"smiles": "COc1cccc(N/C(SCc2cccc([N+](=O)[O-])c2)=C(/C#N)C(=O)NCc2cccs2)c1", "Potency": "active: 10.4 µM"}
{"smiles": "COc1cc(C2C3=C(CC(C)(C)CC3=O)NC3=C2C(=O)c2ccccc23)ccc1O", "note": "(stereo not given)", "Potency": "inconclusive [inhibitor, partial curve]"}
{"smiles": "Cc1ccccc1OCC(=O)N(CC(C)C)c1c(N)n(CC(C)C)c(=O)[nH]c1=O", "Potency": "inactive"}
{"smiles": "CC(C)(C)c1nnc2sc(SCC(=O)NCc3ccco3)nn2c1=O", "Potency": "inconclusive [inhibitor, single point]"}
{"smiles": "COc1ccc(OC)c(C(=O)CSc2nnc(-c3cccnc3)n2C)c1", "Potency": "inconclusive [inhibitor, partial curve, poor fit]"}
{"smiles": "O=C(/C=C\\c1cn(-c2ccccc2)nc1-c1ccccc1)Nc1nccs1", "Potency": "inconclusive [inhibitor, single point]"}
{"smiles": "O=C(Nc1cccnc1)c1cc(-c2cccc(Br)c2)nc2ccccc12", "Potency": "active: 3.7 µM"}
{"smiles": "CCOc1ccc(N(C)S(=O)(=O)c2csc(C(N)=O)c2)cc1", "Potency": "inconclusive [inhibitor, partial curve, poor fit]"}
